{"source": "ChEMBL document CHEMBL4888484", "about": "“Replenishing the malaria drug discovery pipeline: Screening and hit evaluation of the MMV Hit Generation Library 1 (HGL1) against asexual blood stage Plasmodium falciparum ,using a nano luciferase reporter read-out” (2022)", "note": "Among all 150,000 compounds or so, about 540 (0.36%) showed an effect of 50% or more. Some of the results follow."}
{"test_system": "Plasmodium falciparum", "assay": "Primary screen in NF54 nanoGlo assay, in single point, at 2uM, 72h; a lower Z score goes with more inhibition", "type": "functional, Erythrocyte", "conditions": "timepoint 72 hour", "units": {"% Inhibition": "%"}}
{"compound": "CC(=O)N1C[C@H]2CN(C(=O)c3ccc(C)c(C)c3)C[C@@]2(C(=O)N2CCCC2)C1", "% Inhibition": -9, "Z score": 1.24}
{"compound": "CCN(CCN1CCOCC1)C(=O)c1cc2n(n1)CCN(C(C)=O)C2", "% Inhibition": -7, "Z score": 1.08}
{"compound": "COc1ccccc1C(=O)N1CCC([C@H](NC(=O)c2ccc3c(c2)OCO3)C(=O)NC(C)C)CC1", "% Inhibition": 32, "Z score": -0.9}
{"compound": "O=C1C[C@@]2(CCCN(C(=O)CCc3cccc4c3OCO4)C2)CN1", "% Inhibition": -10, "Z score": 1.69}
{"compound": "CC(C)(C)NC(=O)C1CCN(c2cc(-c3cccc(F)c3)ncn2)CC1", "% Inhibition": 3, "Z score": -0.39}
{"compound": "CC(C)(C)c1ccc2cc(C(=O)N3CCC[C@H]3c3ccncc3)[nH]c2c1", "% Inhibition": -14, "Z score": 1.91}
{"compound": "O=C(O)[C@H]1CC12CCN(Cc1ccc(F)c(F)c1)CC2", "% Inhibition": 9, "Z score": -0.82}
{"compound": "Nc1c(NC(=O)NC2CCCCC2)c(-c2ccc(Cl)cc2)nn1-c1ccc(C(F)(F)F)cc1", "% Inhibition": -9, "Z score": 0.82}
{"compound": "Cc1n[nH]cc1CN(C)C(=O)N[C@H]1CCCC[C@@H]1c1ccccc1", "% Inhibition": 0, "Z score": -0.07}
{"compound": "N[C@H](C(=O)Nc1cncc(Br)c1O)C1CCOCC1", "% Inhibition": 10, "Z score": -1.45}
{"compound": "CN(C(=O)[C@@H]1COCC(=O)N1Cc1ccccc1)c1ccccc1", "% Inhibition": -1, "Z score": 0.2}
{"compound": "CCN(C(=O)Cn1c(N2CCCCC2)nc(C)cc1=O)c1ccccc1", "% Inhibition": 17, "Z score": -1.87}
{"compound": "COC(=O)CN(C)CCOc1ccccc1Cl", "% Inhibition": -4, "Z score": 0.62}
{"compound": "CC(C)Oc1cccc2c1c(NC(=O)[C@H]1[C@@H]3CNC[C@@H]31)nn2-c1cccc(F)c1", "% Inhibition": -10, "Z score": 0.98}
{"compound": "Cn1nc(CNS(=O)(=O)c2ccc(Cl)s2)c2c1CCCC2", "% Inhibition": -7, "Z score": 1.48}
{"compound": "COc1ccccc1CCN1Cc2cc(NC(=O)c3ccccc3OC)ccc2O[C@@H](C)C1=O", "% Inhibition": -8, "Z score": 0.88}
{"compound": "O=c1nc(-c2ccccc2)c(-c2ccccc2)nn1C[C@H](O)c1ccccc1Cl", "% Inhibition": 5, "Z score": -0.85}
{"compound": "CN1CCN(c2ncccc2CNC(=O)N[C@H]2CC23CCCCC3)CC1", "% Inhibition": -5, "Z score": 0.66}
{"compound": "CN(C)c1noc([C@@H]2CCCN2C(=O)c2ccsc2)n1", "% Inhibition": -4, "Z score": 0.42}
{"compound": "O=S(=O)(c1ccc(-c2csc(Nc3ccc(Cl)cc3)n2)cc1)N1CCCC1", "% Inhibition": 2, "Z score": -0.31}
{"compound": "O=C(c1cncc(N2CCO[C@H](C3CC3)C2)n1)N1CCOCC1", "% Inhibition": -21, "Z score": 2.05}
{"compound": "C#CCN(Cc1ccco1)Cn1nc(N(C)C)sc1=S", "% Inhibition": -11, "Z score": 1.38}
{"compound": "OCCCN1CCN(CC(F)(F)F)c2ccccc21", "% Inhibition": -7, "Z score": 0.95}
{"compound": "CN(C)S(=O)(=O)N[C@H]1CCN(Cc2ccc(F)c(Cl)c2)C[C@@H]1O", "% Inhibition": 0, "Z score": -0.04}
{"compound": "CC(=O)N1CCN(C[C@@H]2OC[C@H](NC(=O)c3cccc(F)c3)[C@H]2O)CC1", "% Inhibition": -4, "Z score": 0.69}
{"compound": "O=C1CCc2c(OCC(=O)N3CCCCC3)cccc21", "% Inhibition": 3, "Z score": -0.4}
{"compound": "Cc1nccc(OC2Cc3ccccc3C2N)n1", "note": "(stereo unspecified)", "% Inhibition": -1, "Z score": 0.07}
{"compound": "CC(=O)Nc1ccc(C)cc1S(=O)(=O)N1CC[C@H](n2nc(-c3ccccc3)nc2C)C1", "% Inhibition": -17, "Z score": 2.23}
{"compound": "CC[C@](C)(NCc1noc(C)n1)C(N)=O", "% Inhibition": 9, "Z score": -1.55}
{"compound": "O=C(c1ccc(Cl)c(S(=O)(=O)N2CCCCCC2)c1)N(Cc1ccco1)C1CC1", "% Inhibition": -15, "Z score": 1.97}
{"compound": "Cc1cc(C(=O)Cn2cnc(C#N)n2)c(C)n1CCc1ccc(Cl)cc1", "% Inhibition": -9, "Z score": 1.55}
{"compound": "CN1CC[C@H](CN(C)C(=O)C(C)(C)c2cc(C(F)(F)F)ccn2)C1", "% Inhibition": 4, "Z score": -0.83}
{"compound": "CN1CCC[C@@]2(CCN(C(=O)c3csc(NC4CC4)n3)C2)C1", "% Inhibition": 1, "Z score": -0.14}
{"compound": "CC1Cc2ccccc2N1Cc1occc1C(=O)N1CCC(C2CCN(C)CC2)C1", "note": "(stereo unspecified)", "% Inhibition": -5, "Z score": 0.67}
{"compound": "CC(C)Cn1cc(NCc2cnn(C)c2)cn1", "% Inhibition": -2, "Z score": 0.23}
{"compound": "COCc1nc(C)cc(NCc2cc3n(n2)CCCC3)n1", "% Inhibition": -9, "Z score": 0.95}
{"compound": "CNC(=O)[C@H]1CN(C)C[C@@H]1NC(=O)c1c(F)ccc(F)c1F", "% Inhibition": 8, "Z score": -1.04}
{"compound": "CCN(CC)c1nc(N2CCOCC2)nc(N2CC(=O)N(c3ccccc3)C2=N)n1", "% Inhibition": -1, "Z score": 0.14}
{"compound": "O=C(O)[C@@]1(CC2CC2)CCCN(c2ncccc2F)C1", "% Inhibition": -15, "Z score": 1.99}
{"compound": "Brc1cccc2c1OCC[C@@H]2Nc1ncnc2nc[nH]c12", "% Inhibition": 28, "Z score": -0.35}
{"compound": "CNC(=O)C[C@H](C)N(C)C(=O)c1[nH]c2c(C)ccc(C)c2c1C", "% Inhibition": -14, "Z score": 1.53}
{"compound": "COC[C@H](O)CNC[C@H]1CC[C@@H](c2ccccc2)O1", "% Inhibition": 3, "Z score": -0.6}
{"compound": "O=c1[nH]c(-c2ccnc(OCC(F)F)c2)nc2cc(F)c(F)cc12", "% Inhibition": 0, "Z score": -0.04}
